Measurements taken from article PMC4683079.
These are yes or no findings as the source states them, for the method shown. Binding seen in cells or lysates may run through a third protein. Some binding calls cover weakened binding; strength is not graded here. Sequences can lack the tags named with a protein. One block for each molecule: values may come before it.

Sequences of proteins named here, by UniProt entry; tags and fusion partners are left off. A change or cut given only in a name is not applied to a line headed by its entry.
UniProt Q9Z138: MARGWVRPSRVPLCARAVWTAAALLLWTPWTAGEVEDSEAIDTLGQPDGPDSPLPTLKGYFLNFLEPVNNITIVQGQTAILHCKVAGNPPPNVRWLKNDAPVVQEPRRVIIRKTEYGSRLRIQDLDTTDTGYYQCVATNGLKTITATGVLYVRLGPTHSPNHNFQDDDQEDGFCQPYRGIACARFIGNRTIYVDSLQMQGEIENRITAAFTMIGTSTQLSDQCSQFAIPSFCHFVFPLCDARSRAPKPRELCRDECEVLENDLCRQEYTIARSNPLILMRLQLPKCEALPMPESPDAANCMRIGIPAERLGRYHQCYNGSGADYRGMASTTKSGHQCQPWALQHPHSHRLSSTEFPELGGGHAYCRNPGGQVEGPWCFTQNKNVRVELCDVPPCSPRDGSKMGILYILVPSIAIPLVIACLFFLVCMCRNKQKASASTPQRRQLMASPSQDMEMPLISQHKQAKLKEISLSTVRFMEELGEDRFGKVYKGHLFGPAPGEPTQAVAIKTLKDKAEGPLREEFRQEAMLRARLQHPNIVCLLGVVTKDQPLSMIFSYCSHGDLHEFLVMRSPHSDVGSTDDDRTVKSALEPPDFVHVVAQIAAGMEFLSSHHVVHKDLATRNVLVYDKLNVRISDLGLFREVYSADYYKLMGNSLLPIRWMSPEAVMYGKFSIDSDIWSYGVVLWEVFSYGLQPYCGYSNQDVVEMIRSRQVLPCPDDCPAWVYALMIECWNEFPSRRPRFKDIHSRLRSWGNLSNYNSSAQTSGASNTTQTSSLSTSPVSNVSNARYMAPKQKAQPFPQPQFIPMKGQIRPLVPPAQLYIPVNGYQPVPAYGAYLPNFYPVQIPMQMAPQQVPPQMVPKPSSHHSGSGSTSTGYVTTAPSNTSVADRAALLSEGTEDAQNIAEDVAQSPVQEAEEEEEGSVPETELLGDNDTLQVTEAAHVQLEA

Tests used:
[1] = target: T1, myc-tagged full-length human PTK7 (PTK7-MT) (human) (UniProt Q13308); assay: co-IP; MCF7 cells co-transfected, lysed 48 h later in TBS (50 mM Tris pH 7.5, 150 mM NaCl) with 0.5% NP-40; IP with anti-myc, anti-HA or anti-Flag M2 and Protein A Sepharose at 4°C; five washes with lysis buffer; Western blot
T1 sequence: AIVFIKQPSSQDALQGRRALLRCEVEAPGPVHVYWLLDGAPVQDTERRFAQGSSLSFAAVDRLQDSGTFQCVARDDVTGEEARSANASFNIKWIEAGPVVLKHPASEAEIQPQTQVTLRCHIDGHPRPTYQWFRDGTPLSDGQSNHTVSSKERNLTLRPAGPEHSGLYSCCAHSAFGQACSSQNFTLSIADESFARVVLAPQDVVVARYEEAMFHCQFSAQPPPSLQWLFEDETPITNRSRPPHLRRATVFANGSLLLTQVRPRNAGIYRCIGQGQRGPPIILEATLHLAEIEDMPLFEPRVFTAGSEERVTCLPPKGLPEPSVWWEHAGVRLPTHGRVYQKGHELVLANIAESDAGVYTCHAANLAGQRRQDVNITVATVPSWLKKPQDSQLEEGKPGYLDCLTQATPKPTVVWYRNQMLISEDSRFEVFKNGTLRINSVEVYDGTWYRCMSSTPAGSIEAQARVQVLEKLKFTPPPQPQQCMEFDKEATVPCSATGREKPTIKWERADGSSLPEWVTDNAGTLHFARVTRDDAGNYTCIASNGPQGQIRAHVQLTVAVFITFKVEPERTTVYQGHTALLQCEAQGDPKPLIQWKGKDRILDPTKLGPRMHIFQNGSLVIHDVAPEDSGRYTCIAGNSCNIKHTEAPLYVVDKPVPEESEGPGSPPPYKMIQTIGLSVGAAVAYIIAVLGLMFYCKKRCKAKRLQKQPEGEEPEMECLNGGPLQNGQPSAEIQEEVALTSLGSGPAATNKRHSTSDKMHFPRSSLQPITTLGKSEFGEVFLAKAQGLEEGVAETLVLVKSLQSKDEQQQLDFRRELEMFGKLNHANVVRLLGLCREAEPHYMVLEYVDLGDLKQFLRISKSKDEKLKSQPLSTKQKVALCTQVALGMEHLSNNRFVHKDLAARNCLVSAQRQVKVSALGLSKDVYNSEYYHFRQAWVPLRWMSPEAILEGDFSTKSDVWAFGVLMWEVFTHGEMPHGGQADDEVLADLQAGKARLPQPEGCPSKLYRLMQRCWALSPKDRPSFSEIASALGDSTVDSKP

[2] = target: HA-tagged full-length mouse Ror2 (Ror2-HA) (mouse) (UniProt Q9Z138); assay: as above
[3] = target: secreted extracellular domain of mouse Ror2 (sRor2-HA) (mouse) (UniProt Q9Z138); assay: co-IP; data not shown: sRor2-HA as the precipitated protein, co-expressed with PTK7-MT in MCF7 cells

Molecule: secreted extracellular domain of mouse Ror2 (sRor2-HA) (from UniProt Q9Z138 34-403) (domain or fragment)
binding [1]: binds

Molecule: EGFR-EGFP (from UniProt P00533 25-1210) (receptor)
binding [2]: no binding

Molecule: HA-tagged full-length mouse Ror2 (Ror2-HA) (from UniProt Q9Z138 34-944) (receptor)
binding [1]: binds

Continued, values first:

binding [2]: no binding
binding [1]: no binding
B1: TGFß1R-EGFP (receptor, UniProt P36897 34-503)
chain: LQCFCHLCTKDNFTCVTDGLCFVSVTETTDKVIHNSMCIAEIDLIPRDRPFVCAPSSKTGSVTTTYCCNQDHCNKIELPTTVKSSPGLGPVELAAVIAGPVCFVCISLMLMVYICHNRTVIHHRVPNEEDPSLDRPFISEGTTLKDLIYDMTTSGSGSGLPLLVQRTIARTIVLQESIGKGRFGEVWRGKWRGEEVAVKIFSSREERSWFREAEIYQTVMLRHENILGFIAADNKDNGTWTQLWLVSDYHEHGSLFDYLNRYTVTVEGMIKLALSTASGLAHLHMEIVGTQGKPAIAHRDLKSKNILVKKNGTCCIADLGLAVRHDSATDTIDIAPNHRVGTKRYMAPEVLDDSINMKHFESFKRADIYAMGLVFWEIARRCSIGGIHEDYQLPYYDLVPSDPSVEEMRKVVCEQKLRPNIPNRWQSCEALRVMAKIMRECWYANGAARLTALRIKKTLSQLSQQEGIKM

binding [3]: binds
binding [2]: binds
B2: myc-tagged full-length human PTK7 (PTK7-MT) (receptor, UniProt Q13308 31-1070)
chain: T1 sequence
